# Experimental data reported in the supplement of paper PMC3334620.
# Whole data set: some 33,000 sequences, median “E-score (-0.5 to 0.5)” near -0.043, cut for the highest 2% near 0.37. The list shows a part of the results.
# Target: T1, Upc2 (UniProt Q12151)
# T1 sequence: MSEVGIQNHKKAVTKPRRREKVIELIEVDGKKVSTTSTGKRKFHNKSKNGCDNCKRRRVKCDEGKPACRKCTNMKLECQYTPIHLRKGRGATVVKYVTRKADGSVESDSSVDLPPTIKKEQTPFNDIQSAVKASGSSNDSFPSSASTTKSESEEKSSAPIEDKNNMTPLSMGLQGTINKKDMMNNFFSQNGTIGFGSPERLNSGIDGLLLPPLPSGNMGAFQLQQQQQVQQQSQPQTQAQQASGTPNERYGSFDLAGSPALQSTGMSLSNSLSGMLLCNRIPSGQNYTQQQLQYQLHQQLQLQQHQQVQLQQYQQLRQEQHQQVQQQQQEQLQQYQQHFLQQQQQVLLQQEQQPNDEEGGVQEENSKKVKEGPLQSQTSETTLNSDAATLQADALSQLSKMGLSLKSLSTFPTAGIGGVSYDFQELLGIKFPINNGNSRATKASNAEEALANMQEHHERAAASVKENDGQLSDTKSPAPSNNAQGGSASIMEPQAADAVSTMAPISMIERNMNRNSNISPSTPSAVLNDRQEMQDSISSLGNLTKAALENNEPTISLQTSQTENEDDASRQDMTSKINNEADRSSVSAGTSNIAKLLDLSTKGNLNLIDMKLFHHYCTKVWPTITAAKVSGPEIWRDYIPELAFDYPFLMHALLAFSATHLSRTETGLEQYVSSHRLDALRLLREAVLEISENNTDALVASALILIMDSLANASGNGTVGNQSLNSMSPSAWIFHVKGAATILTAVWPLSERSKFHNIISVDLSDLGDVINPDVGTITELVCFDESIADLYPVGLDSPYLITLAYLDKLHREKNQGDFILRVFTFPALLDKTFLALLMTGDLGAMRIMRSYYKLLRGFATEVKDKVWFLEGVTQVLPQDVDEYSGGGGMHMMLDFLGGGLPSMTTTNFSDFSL
# Experiment: PBM E-score (8-mer binding enrichment) (E-score (-0.5 to 0.5)); higher = stronger / more preferred TF binding; most listed sequences are background and not binding sites
# Settings: protein concentration: 200 nM; construct: GST-full length
# How it was run: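 PURExpress in vitro transcription/translation supplied GST-tagged yeast transcription factors, either full-length or DNA-binding domain. Applied at about 100-200 nM to universal all-10-mer Agilent arrays double-stranded by primer extension, the bound protein was detected with fluorescent anti-GST. E-scores, modified Wilcoxon-Mann-Whitney statistics, were given by the Universal PBM Analysis Suite to ungapped eight-base words pooled with their reverse complements after masliner normalisation.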
row,Sequence,PBM E-score
1,GATCAATC,-0.104
2,AAACAGGA,-0.139
3,CAGCGCTG,0.0325
4,CCGTAGGA,-0.0176
5,CCCTTTAG,-0.289
6,CTACTAGA,-0.0432
7,AAGACGAA,0.0751
8,ATCTCTCC,-0.00648
9,TAATGCAA,-0.139
10,CAAATATG,-0.0879
11,CTAACCAG,-0.132
12,GCAAACCC,-0.0188
13,GTAAGGGA,-0.024
14,AAACGGGT,0.344
15,CTTAATCA,-0.0553
16,AACGTTGC,0.111
17,AGCAGCGA,-0.113
18,ACGACATA,0.261
19,CTAGGACA,-0.258
20,ACAATACT,-0.00657
21,AAGCTTCA,-0.0468
22,CCTATAGG,-0.323

row,Sequence,PBM E-score
1,CACCGCCC,0.0439
2,CTTGCTGA,-0.25
3,CGCGAGTC,0.186
4,CGAGTGTA,0.25
5,ACACGGAT,0.106
6,GCATTTGA,0.0934
7,AGTTCCGA,0.11
8,ACTTCGTC,0.0529
9,ACGGGGTA,0.226
10,CCGACTTC,-0.124
11,TGCATAAA,-0.00425
12,GGTTGTCA,-0.164
13,AGGACCTC,-0.0396
14,AAGACTCT,0.0285
15,GAAACGTA,0.21
16,CCGAGGAC,0.234
17,GAACAGCA,-0.0354
18,ACAGTCGT,0.291
19,GTGGCGAA,-0.0326
20,ATGACAAC,-0.0226
21,GCTCAACA,-0.175
22,AAGCGACT,0.243

row,Sequence,PBM E-score
1,AAAATTCC,-0.119
2,CACGAAGC,0.017
3,ACTTGCCT,-0.174
4,GTTTCCCA,-0.101
5,GATGCGAC,0.144
6,CGCGGCAC,0.0106
7,CCGCTCAC,-0.104
8,ATCCTGCC,-0.0336
9,ACGTTGGG,-0.0649
10,GCTTACAC,0.0568
11,GGAACAAC,-0.108
12,TCAGGAGA,-0.229
13,CCGTAACG,0.34
14,GAGGGAAC,-0.0277
15,GAGGTAAA,0.152
16,ACGGTATA,0.274
17,GGAGAGCC,-0.0506
18,AACGTGTC,0.0562
19,GTGCGGCA,-0.123
20,ACAATAGC,-0.171
21,CCGTCTGA,-0.107
22,CCGTTTGA,0.331

row,Sequence,PBM E-score
1,ACTTAAGA,-0.0366
2,CTAGCCCA,-0.335
3,AGTTCAGA,-0.0704
4,CGCTCACA,0.151
5,AGGACCTG,-0.116
6,ATCAGCTA,-0.0378
7,AGGATGTC,-0.0722
8,GAAACATA,0.254
9,CGATGACA,0.0742
10,CTGGCGGA,-0.22
11,GCGCACTA,-0.00558
12,GCGCGCCC,-0.218
13,AAGTGAAA,-0.145
14,CTACAACA,-0.0131
15,ACTATTGC,-0.0704
16,ATAGACGA,0.186
17,CCATGAAG,0.0165
18,AGGAGATA,-0.256
19,GGGCCGTA,0.344
20,ACGCGGAG,0.0342
